Test [1] has as its target T1, recombinant HINT1 protein (mouse, UniProt P70349 1-126).
T1 construct: HINT1, coding region of NM_008248, amplified from mouse brain RNA; also called PKCI/HINT1; source: E. coli BL21 (KRX), purified (GSTrap FF; when necessary cleaved with ProTEV and electroeluted)
T1 sequence (looked up): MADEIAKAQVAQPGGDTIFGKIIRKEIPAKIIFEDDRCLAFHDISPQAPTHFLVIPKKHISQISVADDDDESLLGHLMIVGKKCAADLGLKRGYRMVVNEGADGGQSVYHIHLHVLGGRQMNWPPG
Nature of the test: pull-down; HINT1 protomer 200 nM with GST fusion protein 100 nM in 50 mM Tris-HCl pH 7.4, 2.5 mM CaCl2, 0.2% CHAPS, 30 min RT; captured on glutathione Sepharose 4B; Western blot. Particulars: both partners purified.

The target in the next test is T2, recombinant σ1R (murine, UniProt O55242 1-223).
T2 construct: murine full-length (1-223) σ1R, GenBank AF004927; Used as prey; also called sigma 1 receptor; source: E. coli BL21 (KRX), purified (GSTrap FF; when necessary cleaved with ProTEV and electroeluted)
In words: pull-down; bait (GST-NR1 C0-C1-C2 or GST-MOR) covalently attached to NHS-activated Sepharose; σ1R 100 nM in 50 mM Tris-HCl pH 7.4, 0.2% CHAPS, 30 min RT; CaCl2 0.25, 0.75 or 2.5 mM; parallel samples with neurosteroids (30 uM) or synthetic σ1R ligands; Western blot. Particulars: both partners purified.

Results on one molecule are retold here after article PMC4742118, “The ON:OFF switch, σ1R-HINT1 protein, controls GPCR-NMDA receptor cross-regulation: Implications in neurological disorders” (Oncotarget, 2015).

B1: GST-NR1 C0-C1-C2 (domain or fragment)
chain: not shown
notes: C-terminal region of the glutamate receptor NMDAR1 (NM_008169), […], from mouse brain RNA; also called agarose-NR1 C0-C1-C2; source: E. coli BL21 (KRX), purified (GSTrap FF); not shown: GST, N-terminal, kept
Take B1: the binding result (in test [1]; with recombinant σ1R) was “binds” each time.
